This is an account of results in article PMC12136788.

T1: UNK ZnF1-3 (human, UniProt Q9C0B0 31-174)
T1 sequence: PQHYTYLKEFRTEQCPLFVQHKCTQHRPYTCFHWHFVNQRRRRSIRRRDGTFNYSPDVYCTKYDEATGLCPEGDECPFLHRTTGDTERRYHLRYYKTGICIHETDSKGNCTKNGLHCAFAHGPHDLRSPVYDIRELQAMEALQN

B1: 32197609_32197729_349_CDS_ENSG00000165322_ENST00000344936|human|control|control (ssRNA)
RNA: GGGAGUUCUACAGUCCGACGAUCGUUUUCAUCUGGCUUGACUUGCCACCAGUCAUCAUUGGUCUUUUUCACCAAGAUGUACCUCUCCCCUUGUUUUAUCACAAUCUUUCUGUCCUUUGCUUCAUAUUCAUAAUCAUAUUCCACCAACAGAGGAUUGAGCAUCA
B2: chr5:128448638:128448639:+_ENSG00000066583_ENST00000173527|hu_mus|hu_hu_hu_mus_False|28_78 (ssRNA)
RNA: GGGAGUUCUACAGUCCGACGAUCGGCACUCGCCUUAAUUAGGUUCUGAAUUUCCUUGAAUUUUGGAUGGUCUUUGUCAGCCACCAGCUGUAGGAGGACAGCCUCACUCGUGGUCACGAUGAUCCCAGUGCGGGCAAGACGCUCCAACAGAGGAUUGAGCAUCA
B3: chr1:46159212:46159213:+_ENSG00000159596_ENST00000372025|hu_hu|FALSE|FALSE (ssRNA)
RNA: GGGAGUUCUACAGUCCGACGAUCUCUGAUCCCACCCAAGAAAGAUAGGAAACUGGCUCCAUAAGCCAUCUGAGUAAAAGCUAAUAUGGGAAUAUAAGUUUUUGUCAUCAGCAUGACCAGUGGUGGAGCAACGAAGGGGAUUAGCAACAGAGGAUUGAGCAUCA
B4: 105544292_105553185_213_3pUTR_ENSMUSG00000068798_ENSMUST00000090678|mouse|control|control (ssRNA)
RNA: GGGAGUUCUACAGUCCGACGAUCUGCACUGUUGGCAAUCUACCUCGACUUGCUUUCUGUAGGAAUCUUCUAUCGUUGGGUCAUAUUUUUCAACAAAAAUCCCCUGAACAAACUGAACUGUCAGAGCAGACUUCCCCACGCCUCCAACAGAGGAUUGAGCAUCA
B5: 135086339_135086459_490_3pUTR_ENSMUSG00000028165_ENSMUST00000029815|mouse|control|control (ssRNA)
RNA: GGGAGUUCUACAGUCCGACGAUCCGUCCGCUGCCCGGCUGCUGCGCUUGCGUGAGAGCGGAAGCGGCCGGCGGGCUCGCGGGCUCGGGCGGGAGGUGGCCCGCCGGGCCGCGAUUGGCGCGCGGCGAGUGACGUGCGCGCUGCCAACAGAGGAUUGAGCAUCA
B6: chr10:112362630:112362631:-_ENSMUSG00000074748_ENSMUST00000099276|mus_mus|FALSE|FALSE (ssRNA)
RNA: GGGAGUUCUACAGUCCGACGAUCGGAUUACUUAUUAAAAAAUAAGAAUCUCCAAAACAAAGGACAGUGGUGAAUUUCAAACUACCCUCCCCCAAUGAUCCCAGCAUGCGAUAAUGCCAGGUAGUGGCCCCUGGGCAUGCGAUGCAACAGAGGAUUGAGCAUCA
B7: chr4:25749455:25749456:-_ENSG00000091490_ENST00000264868|hu_hu|hu_hu_hu_mus_False|38_38 (ssRNA)
RNA: GGGAGUUCUACAGUCCGACGAUCGCACUAUGACCUCUAGAAAAAUCCACAGGGGGAAAAAAUGUAAACCAAUGUACAAUGUUAUCGCCUUCCCUGUAUUUCCAGGCUUUGUCUCAAGGCUCCUUCUAGCUGCUGGAUUUGGGACAACAGAGGAUUGAGCAUCA
B8: 155408821_155429669_5543_CDS_ENSG00000116539_ENST00000392403|human|control|control (ssRNA)
RNA: GGGAGUUCUACAGUCCGACGAUCAGCAACUAAUCUUGGACUUCGAGAGGGAACUCCGUUUACUGUUGAAGAAGUACUCUCAGAUGAAGACCUUUUCCGGGUAGGGCUACAAUUUGUGCUCUCUGAUGGCCGCUGGGAGGGUUUCAACAGAGGAUUGAGCAUCA
B9: chr2:232320318:232320319:-_ENSG00000115053_ENST00000322723|hu_hu|motif|central (ssRNA)
RNA: GGGAGUUCUACAGUCCGACGAUCACUGUUGAAGUCUACAAAACCAAACCCUUUGGAGGACCCAGUUUCCCGGUCAGUAACGGUCCUUGCCCGAACGGAGCCGUCAAAUGACUCCUUUAAUGUCUCUUCAGUGGUAUCCUCAGACAACAGAGGAUUGAGCAUCA
B10: chr19:10058675:10058676:+_ENSMUSG00000024661_ENSMUST00000025563|mus_hu|FALSE|FALSE (ssRNA)
RNA: GGGAGUUCUACAGUCCGACGAUCUGGUGAAGAAAGUAUUUGGCAAAGUUCUUCAAAGCCACAUCAUCGCGGUCAAAGUAGUAAGACUGCGAGGUGGACGCGGUCGUCAUGGCGGCGACUAAGGAGAGGCGGCGGCGGCGGCGGCAACAGAGGAUUGAGCAUCA
B11: chr1:193065829:193065830:-_ENSG00000023572_ENST00000367439|hu_mus|FALSE|FALSE (ssRNA)
RNA: GGGAGUUCUACAGUCCGACGAUCUUUUUUUAAAUAACACUGAUGAACCAGAGGCAGCAAUUUCCCUUCUUUGUGAAGCCUGUGAGUGUCCGCUGCGCCUCCAAUAAAUCGUCCAUUGACAAAUAUCCUGGGAACGGUUCUUUCCAACAGAGGAUUGAGCAUCA
B12: chr16:87451109:87451110:-_ENSG00000140948_ENST00000268616|hu_mus|motif|central (ssRNA)
RNA: GGGAGUUCUACAGUCCGACGAUCCUUCUCCAUGGUGAGCUGUUUAAAGACAGGGUAAUACUUGUGCAAGCGCAGCUUCCGGAGCCAGUCUAAAAUCCCAUUCUGCUCCUGGGGCUGAGGGGUCUGCAGACUGGAGGGCAUAAGCAACAGAGGAUUGAGCAUCA
B13: chr2:29016751:29016752:+_ENSG00000213639_ENST00000296122|perfect_dup|motif|central (ssRNA)
RNA: GGGAGUUCUACAGUCCGACGAUCUUUAGCAAAAAAUUCAUAUCCGUCUUCCACCACCUGAUGAGCUCGACAAAUCAAGUCGGAAUCAUGACGAUUCAGAAAUUUACUGACUACAUCAGCUCCAAAAGUAAAAGAAACACCACGCAACAGAGGAUUGAGCAUCA
B14: chr7:56126341:56126342:+_ENSG00000146731_ENST00000540286|hu_mus|motif|central (ssRNA)
RNA: GGGAGUUCUACAGUCCGACGAUCCAUGUUUCUCCUCUUGGCUCUGCGCAGAGCUACGAUCCCUUCUUUCGCAAGGGCAUCGGAGGAAAAGGGGUCAAUCCCCUUUUGAUUAAUAACGACAAAUCCUUUAUCUGAGUCACCACACAACAGAGGAUUGAGCAUCA

This is one part of the list.

The assay has as its target T1, UNK ZnF1-3. Briefly: nsRBNS (natural sequence RNA bind-n-seq); RBNS binding buffer (assumed for nsRBNS): 25 mM Tris pH 7.5, 150 mM KCl, 3 mM MgCl2, 0.01% Triton X-100, 500 ug/ml BSA, 20 U/ml SUPERase-In, 4 C; UNK is unkempt and MSI1 is Musashi-1; names of the RNAs are library labels; protein concentration not given here; high values mean tight binding.
As to B1, the binding signal was 0.413 enrichment R.

Molecule B2 gave a binding signal of 0.92 enrichment R.

B3 registered a binding signal of 1.49 enrichment R.

For the molecule B4, the binding signal came to 0.966 enrichment R.

B5 registered a binding signal of 0.351 enrichment R.

The molecule B6 returned a binding signal of 0.709 enrichment R.

The molecule B7 showed a binding signal of 1.09 enrichment R.

The molecule B8 showed a binding signal of 1.11 enrichment R.

For the molecule B9, the binding signal was found to be 0.863 enrichment R.

As to B10, the binding signal turned out to be 0.843 enrichment R.

B11 displayed a binding signal of 0.794 enrichment R.

For the molecule B12, the binding signal stood at 1.37 enrichment R.

Molecule B13 gave a binding signal of 1.36 enrichment R.

On to B14, for which the binding signal turned out to be 0.805 enrichment R.
